# Measured values: the supplement of paper PMC4604168 (melanoma cell lines)
# The list shows a part of the results. Single values are uncertain, as repeats are few or missing.
# System: LOXIMVI
# Assay: cell count relative to DMSO control; melanoma cells; higher = more viable cells
# Conditions: library dose: low library concentration; 72 h
# 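Further: cell number obtained by counting DAPI-stained nuclei in high-throughput microscope images with image analysis software, screen run in 1,536-well plates.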
row,SMILES,cell count [%]
1,"C=CCNC1=C2C[C@@H](C)C[C@H](OC)[C@H](O)[C@@H](C)/C=C(\C)[C@H](OC(N)=O)[C@@H](OC)/C=C\C=C(/C)C(=O)NC(=CC1=O)C2=O [Tanespimycin] + Cn1cc(/C=C2\C(=O)Nc3cccnc32)c2ccccc21 [GW441756] (first compound 0.002 µM, partner dose 0.4 µM)",151
2,"CNC(=O)c1cc(Oc2ccc(NC(=O)Nc3ccc(Cl)c(C(F)(F)F)c3)cc2)ccn1 [sorafenib] + c1cc(-c2cnn3cc(-c4ccc(OCCN5CCCCC5)cc4)cnc23)ccn1 [Dorsomorphin] (first compound 0.4 µM, partner dose 0.4 µM)",117
3,"C[C@@H](Oc1cc(-c2cnn(C3CCNCC3)c2)cnc1N)c1c(Cl)ccc(F)c1Cl [Crizotinib] + COc1cc(N2CCC(N3CCN(C)CC3)CC2)ccc1Nc1ncc(Cl)c(Nc2ccccc2S(=O)(=O)C(C)C)n1 [NVP-TAE684] (first compound 0.2 µM, partner dose 0.08 µM)",77.2
4,"CNC(=O)c1cc(Oc2ccc(NC(=O)Nc3ccc(Cl)c(C(F)(F)F)c3)cc2)ccn1 [sorafenib] + CCCCCCCCCCCC1=C(O)C(=O)C=C(O)C1=O [Embelin] (first compound 0.4 µM, partner dose 1.2 µM)",137
5,"CS(=O)(=O)CCNCc1ccc(-c2ccc3ncnc(Nc4ccc(OCc5cccc(F)c5)c(Cl)c4)c3c2)o1 [lapatinib] + O=C(Nc1ccccc1)c1cc([N+](=O)[O-])ccc1Cl [GW9662] (first compound 0.8 µM, partner dose 2 µM)",65.1
6,"CS(=O)(=O)CCNCc1ccc(-c2ccc3ncnc(Nc4ccc(OCc5cccc(F)c5)c(Cl)c4)c3c2)o1 [lapatinib] + COc1ccc2c(c1)CCC1C2CCC2(C)C(NCCCCCCN3C(=O)C=CC3=O)CCC12 [U73122] (first compound 0.8 µM, partner dose 0.4 µM)",91.8
7,"CNC(=O)c1cc(Oc2ccc(NC(=O)Nc3ccc(Cl)c(C(F)(F)F)c3)cc2)ccn1 [sorafenib] + O=C(Nc1ccccc1)c1cc([N+](=O)[O-])ccc1Cl [GW9662] (first compound 0.4 µM, partner dose 2 µM)",107
8,"CS(=O)(=O)CCNCc1ccc(-c2ccc3ncnc(Nc4ccc(OCc5cccc(F)c5)c(Cl)c4)c3c2)o1 [lapatinib] + COc1ccc(-c2ccc3c(N4CCOCC4)nc(N4C[C@@H](C)O[C@@H](C)C4)nc3n2)cc1CO [KU0063794] (first compound 0.8 µM, partner dose 0.02 µM)",200
9,"CS(=O)(=O)CCNCc1ccc(-c2ccc3ncnc(Nc4ccc(OCc5cccc(F)c5)c(Cl)c4)c3c2)o1 [lapatinib] + O=C1NC(=O)/C(=C/c2ccc(-c3ccc(F)cc3O)o2)S1 [AS252424] (first compound 0.8 µM, partner dose 1 µM)",153
10,"CNC(=O)c1cc(Oc2ccc(NC(=O)Nc3ccc(Cl)c(C(F)(F)F)c3)cc2)ccn1 [sorafenib] + COc1cc(N2CCC(N3CCN(C)CC3)CC2)ccc1Nc1ncc(Cl)c(Nc2ccccc2S(=O)(=O)C(C)C)n1 [NVP-TAE684] (first compound 0.4 µM, partner dose 0.08 µM)",119
11,"CN1CCN(c2ccc3nc(-c4c(N)c5c(F)cccc5[nH]c4=O)[nH]c3c2)CC1 [Dovitinib] + COc1cc2ncnc(Nc3ccc(Oc4ccccc4)cc3)c2cc1OC [SrcI1] (first compound 0.1 µM, partner dose 2 µM)",158
12,"CN1CCN(c2ccc3nc(-c4c(N)c5c(F)cccc5[nH]c4=O)[nH]c3c2)CC1 [Dovitinib] + CC(C)CCN1c2nc(Nc3cc(F)c(O)c(F)c3)ncc2N(C)C(=O)C1C [BID1870] (first compound 0.1 µM, partner dose 0.2 µM)",138
13,"CN1CCN(c2ccc3nc(-c4c(N)c5c(F)cccc5[nH]c4=O)[nH]c3c2)CC1 [Dovitinib] + O=C1NC(=O)/C(=C/c2ccc(-c3ccc(F)cc3O)o2)S1 [AS252424] (first compound 0.1 µM, partner dose 1 µM)",124
14,"C=CCNC1=C2C[C@@H](C)C[C@H](OC)[C@H](O)[C@@H](C)/C=C(\C)[C@H](OC(N)=O)[C@@H](OC)/C=C\C=C(/C)C(=O)NC(=CC1=O)C2=O [Tanespimycin] + CCN(CC)CCCCNc1ncc2cc(-c3cc(OC)cc(OC)c3)c(NC(=O)NC(C)(C)C)nc2n1 [PD173074] (first compound 0.002 µM, partner dose 0.1 µM)",75
15,"C[C@@H](Oc1cc(-c2cnn(C3CCNCC3)c2)cnc1N)c1c(Cl)ccc(F)c1Cl [Crizotinib] + CCCCCCCCCCCC1=C(O)C(=O)C=C(O)C1=O [Embelin] (first compound 0.2 µM, partner dose 1.2 µM)",134
16,"CN1CCN(c2ccc3nc(-c4c(N)c5c(F)cccc5[nH]c4=O)[nH]c3c2)CC1 [Dovitinib] + CCCCCCCCCCCC1=C(O)C(=O)C=C(O)C1=O [Embelin] (first compound 0.1 µM, partner dose 1.2 µM)",79.3
17,"CN1CCN(c2ccc3nc(-c4c(N)c5c(F)cccc5[nH]c4=O)[nH]c3c2)CC1 [Dovitinib] + CCN(CC)CCCCNc1ncc2cc(-c3cc(OC)cc(OC)c3)c(NC(=O)NC(C)(C)C)nc2n1 [PD173074] (first compound 0.1 µM, partner dose 0.1 µM)",81.1
18,"CS(=O)(=O)CCNCc1ccc(-c2ccc3ncnc(Nc4ccc(OCc5cccc(F)c5)c(Cl)c4)c3c2)o1 [lapatinib] + COC(=O)c1sccc1S(=O)(=O)Nc1ccc(Nc2ccccc2)cc1OC [GSK0660] (first compound 0.8 µM, partner dose 1 µM)",91.6
19,"C=CCNC1=C2C[C@@H](C)C[C@H](OC)[C@H](O)[C@@H](C)/C=C(\C)[C@H](OC(N)=O)[C@@H](OC)/C=C\C=C(/C)C(=O)NC(=CC1=O)C2=O [Tanespimycin] + COC(=O)c1sccc1S(=O)(=O)Nc1ccc(Nc2ccccc2)cc1OC [GSK0660] (first compound 0.002 µM, partner dose 1 µM)",98.4
20,"C[C@@H](Oc1cc(-c2cnn(C3CCNCC3)c2)cnc1N)c1c(Cl)ccc(F)c1Cl [Crizotinib] + O=S(=O)(c1ccccc1)N(CC(F)(F)F)c1ccc(C(O)(C(F)(F)F)C(F)(F)F)cc1 [T0901317] (first compound 0.2 µM, partner dose 1.4 µM)",123
21,"C=CCNC1=C2C[C@@H](C)C[C@H](OC)[C@H](O)[C@@H](C)/C=C(\C)[C@H](OC(N)=O)[C@@H](OC)/C=C\C=C(/C)C(=O)NC(=CC1=O)C2=O [Tanespimycin] + CCCCCCCCCCCC1=C(O)C(=O)C=C(O)C1=O [Embelin] (first compound 0.002 µM, partner dose 1.2 µM)",111
22,"CNC(=O)c1cc(Oc2ccc(NC(=O)Nc3ccc(Cl)c(C(F)(F)F)c3)cc2)ccn1 [sorafenib] + COC(=O)c1sccc1S(=O)(=O)Nc1ccc(Nc2ccccc2)cc1OC [GSK0660] (first compound 0.4 µM, partner dose 1 µM)",98.5
23,"CNC(=O)c1cc(Oc2ccc(NC(=O)Nc3ccc(Cl)c(C(F)(F)F)c3)cc2)ccn1 [sorafenib] + CCN(CC)CCCCNc1ncc2cc(-c3cc(OC)cc(OC)c3)c(NC(=O)NC(C)(C)C)nc2n1 [PD173074] (first compound 0.4 µM, partner dose 0.1 µM)",101
24,"CN1CCN(c2ccc3nc(-c4c(N)c5c(F)cccc5[nH]c4=O)[nH]c3c2)CC1 [Dovitinib] + O=c1cc(-c2cccc3c2Sc2ccccc2S3)oc(N2CCOCC2)c1 [KU55933] (first compound 0.1 µM, partner dose 1 µM)",152
25,"C=CCNC1=C2C[C@@H](C)C[C@H](OC)[C@H](O)[C@@H](C)/C=C(\C)[C@H](OC(N)=O)[C@@H](OC)/C=C\C=C(/C)C(=O)NC(=CC1=O)C2=O [Tanespimycin] + O=C1NC(=O)/C(=C/c2ccc(-c3ccc(F)cc3O)o2)S1 [AS252424] (first compound 0.002 µM, partner dose 1 µM)",114
26,"C=CCNC1=C2C[C@@H](C)C[C@H](OC)[C@H](O)[C@@H](C)/C=C(\C)[C@H](OC(N)=O)[C@@H](OC)/C=C\C=C(/C)C(=O)NC(=CC1=O)C2=O [Tanespimycin] + O=C(O)C(=O)Nc1sc2c(c1C(=O)O)CCNC2 [TCS401] (first compound 0.002 µM, partner dose 1.66667 µM)",105
27,"C=CCNC1=C2C[C@@H](C)C[C@H](OC)[C@H](O)[C@@H](C)/C=C(\C)[C@H](OC(N)=O)[C@@H](OC)/C=C\C=C(/C)C(=O)NC(=CC1=O)C2=O [Tanespimycin] + COc1ccc2c(c1)CCC1C2CCC2(C)C(NCCCCCCN3C(=O)C=CC3=O)CCC12 [U73122] (first compound 0.002 µM, partner dose 0.4 µM)",93.4
28,"CNC(=O)c1cc(Oc2ccc(NC(=O)Nc3ccc(Cl)c(C(F)(F)F)c3)cc2)ccn1 [sorafenib] + N#Cc1c(O)c2c(-c3ccc(-c4ccccc4O)cc3)csc2[nH]c1=O [A769662] (first compound 0.4 µM, partner dose 2 µM)",85.8
